# Experimental data published in paper PMC6919601, “Identification of Plasmodium dipeptidyl aminopeptidase allosteric inhibitors by high throughput screening” (PLoS ONE, 2019).
# In all, about 110,000 compounds went through this assay and about 230 (0.21%) showed an effect of 50% or more. Some of the results follow.
# Target: DPAP1 (Plasmodium falciparum, UniProt Q8IIJ9)
# Assay: primary screen, percent inhibition; read by cleavage of a fluorogenic dipeptide substrate; higher = more effect of the substance
# Set-up: species or system P. falciparum D10 trophozoite lysates; single well
# 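Also: 30 min substrate incubation versus DMSO and 10 µM JCP410 controls.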
# Chain of DPAP1 (Q8IIJ9 whole entry, looked up): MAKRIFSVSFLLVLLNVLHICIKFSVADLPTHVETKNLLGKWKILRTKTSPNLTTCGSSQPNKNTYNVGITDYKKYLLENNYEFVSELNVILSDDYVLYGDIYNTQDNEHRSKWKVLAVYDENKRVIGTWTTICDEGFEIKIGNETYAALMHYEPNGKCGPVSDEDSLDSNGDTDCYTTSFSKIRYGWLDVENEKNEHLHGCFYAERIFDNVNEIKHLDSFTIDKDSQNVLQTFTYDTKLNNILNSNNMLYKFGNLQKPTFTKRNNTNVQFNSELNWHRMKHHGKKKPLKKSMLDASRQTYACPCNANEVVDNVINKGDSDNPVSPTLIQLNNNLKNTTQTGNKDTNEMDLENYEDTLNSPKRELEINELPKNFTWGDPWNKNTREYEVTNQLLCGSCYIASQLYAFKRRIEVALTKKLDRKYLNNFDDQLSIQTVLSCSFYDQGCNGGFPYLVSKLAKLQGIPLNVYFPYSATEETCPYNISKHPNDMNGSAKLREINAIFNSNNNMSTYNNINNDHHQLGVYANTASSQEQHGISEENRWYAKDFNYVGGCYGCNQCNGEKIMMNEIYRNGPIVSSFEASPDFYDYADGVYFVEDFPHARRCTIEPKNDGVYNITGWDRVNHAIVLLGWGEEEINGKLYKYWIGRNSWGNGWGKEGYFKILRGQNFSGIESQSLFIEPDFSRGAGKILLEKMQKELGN
row,SMILES,% Inhibition @ 10 uM
1,CC(=O)c1cccc(N2C(=O)C3CCCCC3C2=O)c1 (stereo not shown),9.94%
2,Cc1cccc(NC(=O)CSc2ncnc3[nH]cnc23)c1,-1.6%
3,CCCCNCc1c(C(=O)O)n(Cc2ccccc2F)c2ccccc12,3.54%
4,COc1cc2c(cc1OC)C(COc1ccc3c(C)cc(=O)oc3c1)N(C(=O)c1cccs1)CC2 (stereo not shown),-0.58%
5,O=[N+]([O-])c1ccc(CN2CCCC2CO)cc1 (stereo not shown),3.15%
6,O=C(NCc1ccco1)C1CC(=O)N(c2ccc(Br)cc2)C1 (stereo not shown),-2.74%
7,CCC(Oc1ccccc1)C(=O)Nc1sc(C)c(C)c1C#N (stereo not shown),-4.65%
8,Cc1cc2cc(CNC(=O)CC(C)C)ccc2[nH]1,-3.7%
9,C=Cc1ccc(Cn2c(C)c(CNCc3ccc(CC)cc3)c(C(=O)O)c2C)cc1,-5.49%
10,CCOC(=O)N1CCN(C(=O)CNS(=O)(=O)c2ccc(Br)cc2)CC1,1.4%
11,COc1ccc(Oc2ccc(N)cc2)cc1,-1.88%
12,O=C1OC(c2ccc(Cl)c(Cl)c2)=N/C1=C\c1ccco1,1.97%
13,CCn1ncc(Br)c1C(=O)Nc1sc2c(c1C(N)=O)CCC2,-3.5%
14,COc1ccc(C2C(C#N)=C(N)Oc3c2c(C)nn3-c2ccc(C)cc2)cc1OC (stereo not shown),-8.35%
15,CCn1cc(/C=C(\NC(=O)c2ccco2)C(=O)NCCCN2CCOCC2)c2ccccc21,-3.52%
16,O=C(O)C1CCCCC1C(=O)Nc1ccc(Oc2ccc(Cl)cc2)cc1 (stereo not shown),2.65%
17,CC1=C(C#N)C(=O)N(C)C(=O)/C1=C\Nc1ccc(S(=O)(=O)N2CCOCC2)cc1,-4.68%
18,COc1ccc(/C=C/C(=O)O)cc1S(=O)(=O)N1CCCCCC1,9.21%
19,CC(=O)Nc1ccc(C(=O)Nc2ccc(Cl)cc2)cc1,4.73%
20,COc1ccc(C(CC(=O)O)NC(=O)c2ccc(C)cc2)cc1 (stereo not shown),6.56%
21,COc1cc(-c2nc3n(n2)C(c2ccncc2)C(C(N)=O)=C(C)N3)cc(OC)c1OC (stereo not shown),-1.47%
22,COCC(C)NC1CCc2ccccc2C1 (stereo not shown),-1.81%

row,SMILES,% Inhibition @ 10 uM
1,Cc1cc(OCC(=O)NCCO)cc(C)c1Cl,0.343%
2,N=C1/C(=C\c2ccc(OCCCOc3ccccc3)cc2)C(=O)N=C2SC(N3CCOCC3)=NN12,-1.66%
3,CC(C)OCCC/N=c1/c(-c2ccccc2)c(O)c1=O,-3.5%
4,O=C1/C(=C\c2cccs2)Sc2ccccc21,-4.41%
5,COc1ccc(-c2nc(CS(=O)CC(=O)NCc3ccc(Cl)cc3)c(C)o2)cc1OC (stereo not shown),-2.85%
6,Cc1c(C(=O)NCc2ccccc2)oc2ccc(S(=O)(=O)N3CCCC(C)C3)cc12 (stereo not shown),3.33%
7,O=C(CCC(=O)c1ccc(F)cc1)NCc1ccccc1C(F)(F)F,5.01%
8,O=C(Nc1c(C(=O)Nc2ccc(Cl)cc2)cnn1-c1ccccc1)c1cccs1,6.1%
9,NC(=O)C1CCN(CC2CC3C=CC2C3)CC1 (stereo not shown),-2.34%
10,CCOC(=O)c1c(NC(=O)CSc2nnc(Cc3csc(N)n3)n2C)sc(C)c1C,-3.1%
11,CCOC(=O)C1=C(CS(=O)(=O)c2ccc(F)c(Cl)c2)NC(=O)NC1c1ccccc1OC (stereo not shown),-2.16%
12,CCCC[C@H](NC(=O)C(CCC(=O)Nc1ccccc1)NC(=O)c1ccc(Br)cc1)C(=O)c1nc2ccccc2o1 (stereo partly shown),3.19%
13,CCOc1ccc(NC(=O)c2c(O)c3ccccc3n(CC)c2=O)cc1,14.3%
14,COc1ccc(NCC2CC=CCC2)cc1OC (stereo not shown),-2.95%
15,CCOC(=O)N1CCN(S(=O)(=O)c2ccc(Cl)c(Cl)c2OC)CC1,2.5%
16,O=c1c(O)csc2ccccc12,0.032%
17,Cc1nnc(NC(=O)CSc2nnc(CNC(=O)c3cccs3)n2-c2ccc(F)cc2)s1,-1.3%
18,c1ccc(OCc2nn3c(-c4ccccc4)nnc3s2)cc1,0.0539%
19,O=C(CCS(=O)(=O)c1ccc(Br)s1)NCCc1ccc(Cl)cc1,0.0654%
20,CC(C)N1CCN(Cc2ccccc2)CC1,-3.4%
21,CC1(C)Cc2ccccc2C2=C(C(=O)N3CCOCC3)C(=O)C(=O)N21,-12.1%
22,O=C(NCc1ccccn1)C1CC2CCC1C2 (stereo not shown),-0.402%

row,SMILES,% Inhibition @ 10 uM
1,Cc1oc2ccc(O)c(CN3CCCC3)c2c1C(=O)NCc1ccccc1,-6.72%
2,O=C(Cn1ccc2cc(S(=O)(=O)N3CCCC3)ccc21)NCc1cccc(Cl)c1,-0.717%
3,Cc1cc(C)cc(C(=O)N2CCN=C2c2ccccc2)c1,5.39%
4,CCOc1c(Br)cc(/C=C2\C(=O)ON=C2c2ccccc2)cc1OC,-3.33%
5,CCc1ccc2ncc(S(=O)(=O)c3ccccc3)c(N3CCN(C)CC3)c2c1,-2.01%
6,O=S1(=O)c2cccc3cccc(c23)N1Cc1cc2c(cc1Cl)OCO2,4.61%
7,Cc1cccc2sc(NC(=O)CCn3cccc3)nc12,-2.45%
8,CCN(CC)CCCC(C)Nc1ncnc2c1cnn2C (stereo not shown),4.46%
9,Cc1nc2scc(C)n2c(=O)c1S(=O)(=O)N1CCc2ccccc2C1,-0.984%
10,Cc1ccc(-c2nn3c(C)nnc3c3ccccc23)cc1S(N)(=O)=O,-1.24%
11,Cc1ccc(-c2nn3c(-c4ccco4)nnc3c3ccccc23)cc1,0.366%
12,CC(CCN1CCCC1CO)c1ccccc1 (stereo not shown),1.08%
13,N#Cc1c(-c2ccccc2)cc(-c2ccccc2)nc1SCC(=O)O,-0.239%
14,O=C(c1ccc(-c2ccccc2)s1)N1CCN(Cc2ccccc2)CC1,2.84%
15,Fc1ccc(-n2ncc3c(N4CCOCC4)ncnc32)cc1,-4.46%
16,OCCN1CCN(C2Cc3ccc(F)cc3Sc3ccc(Cl)cc32)CC1 (stereo not shown),2.55%
17,O=C(Nc1cccc([N+](=O)[O-])c1)NS(=O)(=O)c1ccccc1Cl,-4.61%
18,CC1C(c2ccccc2)N(C)C(c2ccccc2)CC1(O)c1ccccc1 (stereo not shown),1.13%
19,CCc1nn2c(=O)c(S(=O)(=O)N3CCN(c4ccccn4)CC3)c(C)nc2s1,-3.41%
20,COc1ccccc1/N=C(/NS(=O)(=O)c1ccccc1)C(Cl)(Cl)Cl,0.343%
